# Measurements reported in paper PMC12136788.
# This is one part of the list.
# T1: UNK ZnF1-3 (human, UniProt Q9C0B0 31-174)
# T1 sequence: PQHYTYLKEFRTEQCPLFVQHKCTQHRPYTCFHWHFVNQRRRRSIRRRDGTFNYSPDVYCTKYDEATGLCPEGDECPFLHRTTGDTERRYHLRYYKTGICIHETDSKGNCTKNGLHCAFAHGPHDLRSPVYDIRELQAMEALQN
# B1: chrX:102931600:102931601:-_ENSG00000123562_ENST00000441076|hu_hu|FALSE|FALSE (ssRNA)
# RNA: GGGAGUUCUACAGUCCGACGAUCGUCCUCAACAAGCCAUGGUUUUAAUUCUUCAGGAAUCUUCACUUUAACCUCCAUUCUAUUCUUAAACGCCUCCUCACUUUCAACAGUGGGGUCUGCCCGGGCCCUUUUCUUCCGAGGGGGCAACAGAGGAUUGAGCAUCA
# B2: chr10:75834556:75834557:+_ENSG00000035403_ENST00000372755|perfect_dup|motif|central (ssRNA)
# RNA: GGGAGUUCUACAGUCCGACGAUCAUUAAUUUCAGCACUCAUUUUUUCUACAGUAAAAUUGCGAUUUUUUAAAGCUUCCUCGGUGCCUUGGUUUUUUGAGUUUUUAGUUGUUACAAAAAUCUUCAUAGCUGAAAUGAGAACUGGCAACAGAGGAUUGAGCAUCA
# B3: chr16:20502619:20502620:+_ENSMUSG00000003235_ENSMUST00000003320|mus_hu|FALSE|FALSE (ssRNA)
# RNA: GGGAGUUCUACAGUCCGACGAUCGUCAGCACAGACAGCUGAGUACAUGUGUAGGUUGGAGACACGGGCACCAUAUUCCUUAGCUGUUACGUGCAUGUGGAUCUGGUUCCCUAGGAUCUCCUCAUUCACUAAGAGACCUCGCACCAACAGAGGAUUGAGCAUCA
# B4: chr4:11413230:11413231:+_ENSMUSG00000040720_ENSMUST00000059914|mus_mus|FALSE|FALSE (ssRNA)
# RNA: GGGAGUUCUACAGUCCGACGAUCAAACGAACCACAUCUAUAUGAGAACUUUGCUCAGCGCUCGGAUGUUUAAAAGUAUCUAAAAAUAGCAGCUCCAUAGACGAGUCCACCGCCAUGUCUGCCGCGGGCGGGGGACCGGGAGAUCAACAGAGGAUUGAGCAUCA
# B5: chr16:21666878:21666879:+_ENSG00000197006_ENST00000396014|hu_hu|motif|central (ssRNA)
# RNA: GGGAGUUCUACAGUCCGACGAUCUUUAAAAACAUUCCUUUACACACUACAAAGAAAUAAUUAGUAUUUUGGCUUUUUAAAUUCCGGCAUGAUAUUUAGAAUGGCGGUCCCCAAGGGUCCUCCCUUCACGUAAUUGUGAACACACAACAGAGGAUUGAGCAUCA
# B6: chr2:75765252:75765253:+_ENSMUSG00000042410_ENSMUST00000047232|mus_hu|motif|central (ssRNA)
# RNA: GGGAGUUCUACAGUCCGACGAUCAGUGAUUCAAAGUAAUCAUUUCACUUUAAUAUCCAGGUUUGAAUGUACAAAUGCUUGCGGAAUGUGAUUAAUGUUCUCAUUAUUUAAGAAACAGGAUAUUUCAAACUUUUGAUUAUGGUACAACAGAGGAUUGAGCAUCA
# B7: chr4:17845017:17845018:+_ENSG00000109805_ENST00000514176|hu_mus|hu_hu_hu_mus_False|28_88 (ssRNA)
# RNA: GGGAGUUCUACAGUCCGACGAUCGCUCUCUUAACUUGUAUCUUCAUGAGAAAUUGGUGCAAGGUUAAGUUUACUUUUCUGUAGCGCAGCUGUUUUGGCUCGUCUGGUAGUCUCAUCCUUCAUUUCUGAUGGUGGUUCAUGAUCCAACAGAGGAUUGAGCAUCA
# B8: 31824166_31824376_896_CDS_ENSMUSG00000021916_ENSMUST00000168584|mouse|control|control (ssRNA)
# RNA: GGGAGUUCUACAGUCCGACGAUCCUGAUAAAAUACGAUAAGCAGAGGAGGUGUGGUGAUGCUGCCUGCCAGAGUUCUGCUGUAUAAUCCCUCUUCUACAUUGAGCUUCAUCCAUUUUUCCAACUGGUUAGUUACAUUCUGUCUCAACAGAGGAUUGAGCAUCA
# B9: chr4:108167797:108167798:+_ENSMUSG00000034610_ENSMUST00000043368|mus_mus|motif|central (ssRNA)
# RNA: GGGAGUUCUACAGUCCGACGAUCCUCCACAAUGUCCUGGCGGAUUCUGAGGUCAUCAUCUGUUAUUCCUUGUUCUUUUGCGGACUCAACAACUGCAACACUUAAAGCAGCCAAGUGAGCAGAGGAAGGAGAUGGAAGAGACCGCAACAGAGGAUUGAGCAUCA
# B10: chr2:48026839:48026840:+_ENSG00000116062_ENST00000540021|hu_hu|hu_hu_hu_mus_False|8_28 (ssRNA)
# RNA: GGGAGUUCUACAGUCCGACGAUCAUAGUGAGCCACUAGCGUCCUAAAUCUGGAACAGUGGCGGUCAUCCGAAAACUGGCCGAUGAAAAACUUGCCCAGUGAAGUGUCAACAAAGCAAACACCAUACGCACGAGUAUGACCAGACAACAGAGGAUUGAGCAUCA
# B11: chr17:60770872:60770873:+_ENSG00000011028_ENST00000303375|hu_hu|hu_hu_hu_mus_True|58_108 (ssRNA)
# RNA: GGGAGUUCUACAGUCCGACGAUCUCUCUUUUCUUUUAAAAAAAAAGACAAACAAUAAUAGCACAUUUCGAGAAUCAUCAACUACAGUAGAGGGUCCGCUUUGAGUUUUUGUUCACAUCGUCCUGCACUGGGACACGGGGACUGCAACAGAGGAUUGAGCAUCA
# B12: chr7:118215947:118215948:-_ENSMUSG00000005610_ENSMUST00000162415|mus_mus|motif|central (ssRNA)
# RNA: GGGAGUUCUACAGUCCGACGAUCGGUCCUUGCAAUAGACUGCCUCUGCUUGAGAACUUAGGAUGUAAUUAUUGCAUGCUGCGGAUAUUCUAUCUAAACAUUAAGGAUACUCCUAAAGUAUUUGAUGGUAGACUAUGAUUAAGACAACAGAGGAUUGAGCAUCA
# B13: 59627756_59627876_917_CDS_ENSMUSG00000039585_ENSMUST00000128341|mouse|control|control (ssRNA)
# RNA: GGGAGUUCUACAGUCCGACGAUCACAUAAAUCAUCAAAGUCUUUCUGUUGAGGCUGUGGAAGAAAACCCCGCUCCAUCAUCCUGCGGCGUUCUUCGGUUACCCGUAGCCAUGAUUGGAGGCUACCAUAAUGAAUUGACCCAUCCAACAGAGGAUUGAGCAUCA
# B14: 121724584_121728810_673_CDS_ENSMUSG00000060227_ENSMUST00000078752|mouse|control|control (ssRNA)
# RNA: GGGAGUUCUACAGUCCGACGAUCUCCACACUGAAAACUCUCGUAUUCUAGCCGCUUGACAAGGUAGGUAUUAUUUUUCCUGUAGUCUUGAAGCUGAUCUUCCUGUCGAAGAAACUCCUGACGAAGCUCAGCCAGUUGCUCCUUCAACAGAGGAUUGAGCAUCA
# B15: chr5:77301437:77301438:+_ENSMUSG00000036377_ENSMUST00000163347|mus_mus|FALSE|FALSE (ssRNA)
# RNA: GGGAGUUCUACAGUCCGACGAUCGUUAGGAAUGAACACCAGUGUGGGAAACGUGCAGUGAAAUAUUAGUUGCUUACAAUAACAGUAAAAAAAAAAAGUUACAUUGAUUCUUAACAGUCUGAAGGUUCAGUAUAUAUAAUACUACAACAGAGGAUUGAGCAUCA
# B16: chrX:45984076:45984077:+_ENSMUSG00000031105_ENSMUST00000114936|mus_mus|FALSE|FALSE (ssRNA)
# RNA: GGGAGUUCUACAGUCCGACGAUCGAAACGAACAUCGAUACUCUGGCCUUGGACUUGCAGCCGUGUUUUAGUAAGAUCCACAGGGAAAGUGCCGAACUCGGCAACAAUAGAGGCAAGGCCGCCAUACACAAAAGGUUUCCAGUUCAACAGAGGAUUGAGCAUCA
# B17: 31364808_31365028_4386_CDS_ENSMUSG00000006307_ENSMUST00000006470|mouse|control|control (ssRNA)
# RNA: GGGAGUUCUACAGUCCGACGAUCCAUCAAGAUGGCCACUACGUCUUCCAUGAAGCUGUGCACAGACUUAUAGAGACCUUCCUCAAAGCGCUUUCCCACAGCUUGUAAAUCACAGGGUCCUGGGUGGAGCUGCUUCCCAUCCUGCAACAGAGGAUUGAGCAUCA
# B18: chr2:47387770:47387771:-_ENSG00000143933_ENST00000272298|hu_mus|hu_hu_hu_mus_True|8_108 (ssRNA)
# RNA: GGGAGUUCUACAGUCCGACGAUCAAGGUUUUAGGACAAUGACAGUAAGAUAAGGGAAGAAAACAUGGAGGAAUGAAGUCCUAAUUACUAUACAUGCAUAUUUUUUGACAGUAGGGGGGGGGAACCUUACAGAUAAGAGUUACACAACAGAGGAUUGAGCAUCA
# B19: 113721642_113724089_572_CDS_ENSMUSG00000003316_ENSMUST00000169020|mouse|control|control (ssRNA)
# RNA: GGGAGUUCUACAGUCCGACGAUCUCGAUGAUCCACCAAGCAGGAAACCAUGUAACCUUUUCCAACUGGUUCUUCCGCACAUUCUUUAAUCUCGGAAAUAGUUGACUUGCAAACCUCCCUGGCCACAGAUUCAAAUUUGGGAUCCAACAGAGGAUUGAGCAUCA
# B20: chrX:140365796:140365797:-_ENSMUSG00000031285_ENSMUST00000033642|mus_mus|mus_mus_mus_hu_False|1_58 (ssRNA)
# RNA: GGGAGUUCUACAGUCCGACGAUCCUUCUCAUUACUCAGUGCCUGCAAGGUUCUGGUUCGGUAGAAGCUACAGUGGGCACUAUGAGUGGGGCUAGGCAACCCAUUCAUCCGGGAGCCUCGCAUGUUCCUGGAUGUCUUGUCUCGCAACAGAGGAUUGAGCAUCA
# B21: chr10:33190432:33190433:-_ENSG00000150093_ENST00000302278|hu_mus|hu_hu_hu_mus_True|28_58 (ssRNA)
# RNA: GGGAGUUCUACAGUCCGACGAUCUACAUUUUCCAAACCUGCAUGUGAAUAAAACCCUGGCCACAGAGCCCCAAAACUACCUAACUGUGACUAAGAUGCUGCUGCUGUUGCAUUCAGGUUGCAAAAUCCGCCUGAGUAGGAUUCCAACAGAGGAUUGAGCAUCA
# B22: 44743879_44745525_506_CDS_ENSMUSG00000022668_ENSMUST00000162512|mouse|control|control (ssRNA)
# RNA: GGGAGUUCUACAGUCCGACGAUCCAUGUCAACGAAGUCUUCGGGUGCUCUAUAGCCAUACCCUGGCAUGUCCACCAAUGUAAAAUGUUUUCCAACUUUGAAAAAAUUCAUUUUCUUUGUGUGCCCCGGUUUUUUUGAGAUCCUCAACAGAGGAUUGAGCAUCA
# Molecular target: T1, UNK ZnF1-3
# Assay: nsRBNS (natural sequence RNA bind-n-seq); RBNS binding buffer (assumed for nsRBNS): 25 mM Tris pH 7.5, 150 mM KCl, 3 mM MgCl2, 0.01% Triton X-100, 500 ug/ml BSA, 20 U/ml SUPERase-In, 4 C; UNK is unkempt and MSI1 is Musashi-1; names of the RNAs are library labels; protein concentration not given here; high values mean tight binding
row,Binder,binding signal [enrichment R]
1,B1,1.09
2,B2,0.958
3,B3,0.68
4,B4,1.28
5,B5,0.822
6,B6,0.836
7,B7,0.387
8,B8,1.12
9,B9,1.43
10,B10,1.38
11,B11,1.11
12,B12,0.966
13,B13,0.833
14,B14,0.624
15,B15,1.33
16,B16,1.08
17,B17,1.05
18,B18,2.51
19,B19,1.2
20,B20,0.457
21,B21,1.22
22,B22,0.789
